In patent publication US4410513A, “Synthetic peptides having pituitary growth hormone releasing activity” (Beckman Instruments, Inc., priority 1981, dated 1983):
At least one peptide structure holds a part that was inferred or is arguable (an end, a ring closure or a residue). Non-standard residues stand in square brackets, D forms with d. Residues, ends and D or L forms follow the SMILES beside them. *: point of attachment. Phe(4-Cl) = N[C@@H](Cc1ccc(Cl)cc1)C(=O)O; dPhe(4-Cl) = N[C@H](Cc1ccc(Cl)cc1)C(=O)O; Desaminotyrosyl = O=C(CCc1ccc(O)cc1)*

Test system: pituitaries
Test: In vitro growth hormone release study (incubated rat pituitaries, GH by RIA)
Assay type: cell-based
Method: Female rats at the CD-1 strain were housed in a constant temperature room at 24° C. with 14 hours light and 10 hours darkness. The rats were fed Purina brand rat chow ab libitum. All studies were started between 0800 and 1000 hours.
Pituitaries were removed from 20 day old female rats. In each polytetrafluoroethylene beaker (10 ml) was incubated two pituitaries at 36° C. in 1 ml of lactated Ringer's solution in a Dubnoff Shaker (90 cycles/min.). All medium in each beaker was removed each hour (e.g., P1, P2, I3, I4, I5) and then fresh medium was added back to each beaker. Each medium removed was assayed for GH, in duplicate, by a standard radioimmunoassay (RIA).
The growth hormone agonist of Example 1 was not added to the incubation mediums employed during the first hour of the incubation period (P1) or to the incubation mediums employed during the second hour of the incubation period (P2). The growth hormone agonist of Example 1 was dissolved in dimethylsulfoxide (DMSO; 10:1, agonist:DMSO), added to each incubation medium employed during the third hour of the incubation period (I3), to each medium employed during the fourth hour of the incubation period (I4) and to each medium employed during the fifth hour of the incubation period (I5). The release of growth hormone was recorded as ΔGH and calculated by subtracting the amount of GH released at P2 from that released at I3, I4, and I5. The agonist activity was determined from the release at I3, I4, and I5.
The procedure set forth in Example 11 with one modification was employed in an in vitro growth hormone release study of the peptide of Example 6 and the results therefrom are set forth in Table XI. The sole modification was the deletion of I5 from the procedure of Example 11.
The procedure set forth in Example 11 with one modification was employed in an in vitro growth hormone release study of the peptide of Example 7 and the results therefrom are set forth in Table XII. The sole modification was the deletion of I5 from the procedure of Example 11.

[1] = dosage 300 ng/ml incubation medium, mean of 9 assays (I3, I4, I5 minus P2) ± SEM
[2] = dosage 3,000 ng/ml incubation medium, mean of 9 assays (I3, I4, I5 minus P2) ± SEM
[3] = dosage 30,000 ng/ml incubation medium, mean of 9 assays (I3, I4, I5 minus P2) ± SEM
[4] = dosage 30 ng/ml incubation medium, mean of 9 assays (I3, I4, I5 minus P2) ± SEM

SMILES | ΔGH [1] [ng/mL] | ΔGH [2] [ng/mL] | ΔGH [3] [ng/mL] | ΔGH (dosage 30 ng/ml incubation medium, I5 deleted, mean of 6 assays (I3, I4 minus P2) ± SEM) [ng/mL] | ΔGH (dosage 300 ng/ml incubation medium, I5 deleted, mean of 6 assays (I3, I4 minus P2) ± SEM) [ng/mL] | ΔGH (dosage 1,000 ng/ml incubation medium, I5 deleted, mean of 6 assays (I3, I4 minus P2) ± SEM) [ng/mL] | ΔGH (dosage 10,000 ng/ml incubation medium, I5 deleted, mean of 6 assays (I3, I4 minus P2) ± SEM) [ng/mL] | ΔGH [4] [ng/mL] | ΔGH (dosage 20,000 ng/ml incubation medium, mean of 9 assays (I3, I4, I5 minus P2) ± SEM) [ng/mL] | ΔGH (dosage 10 ng/ml incubation medium, mean of 9 assays (I3, I4, I5 minus P2) ± SEM) [ng/mL]
COc1ccc(C[C@H](N)C(=O)N[C@H](Cc2c[nH]c3ccccc23)C(=O)N[C@@H](C)C(=O)N[C@@H](Cc2c[nH]c3ccccc23)C(=O)N[C@H](Cc2ccccc2)C(N)=O)cc1 [Example 10, H2 -O-Me-Tyr-D-Trp-Ala-Trp-D-Phe-NH2] (H-Y(Me)[dW]AW[dF]-NH2) | 177 ± 166 | 1138 ± 266 | 892 ± 388 | – | – | – | – | – | – | –
C[C@H](NC(=O)[C@@H](Cc1c[nH]c2ccccc12)NC(=O)[C@@H](N)Cc1ccc(Cl)cc1)C(=O)N[C@@H](Cc1c[nH]c2ccccc12)C(=O)N[C@H](Cc1ccccc1)C(N)=O [Example 7, H2 -p-Cl-Phe-D-Trp-Ala-Trp-D-Phe-NH2] (H-[Phe(4-Cl)][dW]AW[dF]-NH2) | – | – | – | -260 ± 271 | 367 ± 159 | 714 ± 110 | 1326 ± 143 | – | – | –
C[C@H](NC(=O)[C@@H](Cc1c[nH]c2ccccc12)NC(=O)CCc1ccc(O)cc1)C(=O)N[C@@H](Cc1c[nH]c2ccccc12)C(=O)N[C@H](Cc1ccccc1)C(N)=O [Example 8, H-desaminoTyr-D-Trp-Ala-Trp-D-Phe-NH2] (Desaminotyrosyl-[dW]AW[dF]-NH2) | 432 ± 109 | 700 ± 201 | – | – | – | – | – | 231 ± 65 | -861 ± 13 | –
C[C@H](NC(=O)[C@@H](Cc1c[nH]c2ccccc12)NC(=O)[C@@H](N)Cc1ccc(O)cc1)C(=O)N[C@@H](Cc1c[nH]c2ccccc12)C(=O)N[C@H](Cc1ccc(Cl)cc1)C(N)=O [Example 5, H2 -Tyr-D-Trp-Ala-Trp-D-p-Cl-Phe-NH2] (H-Y[dW]AW[dPhe(4-Cl)]-NH2) | 103 ± 77 | 531 ± 42 | 489 ± 138 | – | – | – | – | 124 ± 123 | – | -87 ± 81
